Results taken from PubChem BioAssay AID1478 (National Center for Advancing Translational Sciences (NCATS), 2009).
In all, about 200,000 compounds went through this assay and about 860 (0.43%) were called active. This list was built around the results that the source calls inconclusive (neither active nor inactive); the mix of calls is not that of the screen. Calls follow the shape of the dose curve; as a rule, active = well fitted inhibition curve with a large enough effect; inconclusive = small, poorly fitted or top-dose-only effect; inactive = flat fitted curve, though single readings scatter. Potencies of inconclusive entries are doubtful fits and often do not repeat.

target: Cruzipain (Trypanosoma cruzi) (UniProt P25779); assay: qHTS Assay for Promiscuous and Specific Inhibitors of Cruzain (with detergent); details: purified cruzain, Z-FR-AMC fluorescence, 0.01% Triton; also: nearly all actives have a fitted effect of over 40% in size;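 as to max response, negative = inhibition: plate controls were neutral wells for no effect and buffer without enzyme for full effect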
Sequence of UniProt P25779 (P25779 whole entry, looked up): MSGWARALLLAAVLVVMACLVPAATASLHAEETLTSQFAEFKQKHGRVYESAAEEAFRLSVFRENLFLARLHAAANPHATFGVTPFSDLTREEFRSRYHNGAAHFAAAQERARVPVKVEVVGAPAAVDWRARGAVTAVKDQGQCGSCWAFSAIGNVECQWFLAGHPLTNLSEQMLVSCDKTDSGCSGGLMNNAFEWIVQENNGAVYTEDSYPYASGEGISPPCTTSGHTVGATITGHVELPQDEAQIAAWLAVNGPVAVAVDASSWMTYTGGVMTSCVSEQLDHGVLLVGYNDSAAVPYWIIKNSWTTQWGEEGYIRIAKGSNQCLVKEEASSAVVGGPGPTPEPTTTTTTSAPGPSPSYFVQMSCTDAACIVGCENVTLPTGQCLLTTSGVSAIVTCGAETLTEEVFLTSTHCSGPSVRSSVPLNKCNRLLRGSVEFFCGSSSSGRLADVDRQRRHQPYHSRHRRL
In short: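 Sodium acetate buffer (100 mM, pH 5.5) containing 5 mM DTT and 0.01% Triton X-100 hosted 1.5 nM cruzain and test compound for 15 min at room temperature. Cleavage of 2 uM Z-FR-AMC was then tracked by fluorescence.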
Potency is read from the fitted curve at half-maximal effect; tags tell the direction and shape of the fitted curve.

Structure (SMILES) | Potency | max response, negative = inhibition
O=C(CC1Sc2ccccc2NC1=O)OC(C(=O)NCCc1ccccc1)c1cccnc1 (stereo not drawn) | inconclusive: 15.8 µM [inhibitor, partial curve] | 
O=C(NCc1ccco1)c1ccccc1NS(=O)(=O)c1ccc(Cl)s1 | inconclusive: 31.6 µM [inhibitor, single point] | 
N#Cc1nc(-c2ccc(OCc3ccccc3)cc2)oc1N1CCC(C(N)=O)CC1 | inconclusive: 22.4 µM [inhibitor, single point] | 
CC(C)CC(NC(=O)C(CC(C)C)NC(=O)OC(C)(C)C)C(N)=O (stereo not drawn) | inconclusive: 25.1 µM [inhibitor, single point] | 
N=c1c(C(=O)NCc2ccco2)cc2c(=O)n3ccccc3nc2n1Cc1ccc(Cl)cc1 |  | inactive: -5.39%
CCCCSc1nnc2n(-c3ccc(OC)cc3)c(=O)c3c4c(sc3n12)COC(C(C)C)C4 (stereo not drawn) |  | inactive: -1.34%
O=S(=O)(c1cccc(-c2cn3cccnc3n2)c1)N1CCOCC1 | inconclusive: 28.2 µM [inhibitor, single point] | 
O=C(O)c1sc2cc(C(F)(F)F)cnc2c1-c1ccccc1 | inconclusive: 22.4 µM [inhibitor, single point] | 
Cc1nn(CC(=O)N2CCN(c3ccc(Cl)cc3)CC2)c(=O)c2cccn12 | inconclusive: 15.8 µM [inhibitor, partial curve] | 
COc1ccc(CCNc2ncnc3c2cnn3-c2cc(Cl)ccc2C)cc1 | inconclusive: 6.31 µM [inhibitor, single point] | 
Cc1ccc(C(=O)NC(=S)NNS(=O)(=O)c2ccc(C)cc2)cc1 | inconclusive: 12.6 µM [inhibitor, partial curve] | 
CCN1c2ccccc2-c2nc3ccccc3n2C1c1ccccn1 (stereo not drawn) | inconclusive: 35.5 µM [inhibitor, single point] | 
COc1ccc(OCc2ccc(-c3nc(C#N)c(NC(C)c4ccccc4)o3)o2)cc1 (stereo not drawn) |  | inactive: -1.77%
Cc1ccc2nc3c(cc(C(=O)NCc4cccnc4)c(=N)n3C(C)C)c(=O)n2c1 | active: 31.6 µM | 
CC(C)C[C@@H]1NC(=O)[C@H](C(C)C)NC(=O)c2cc([N+](=O)[O-])cc(I)c2NCC[C@@H](C(N)=O)NC1=O | active: 14.1 µM | 
Cc1nc2cnc(N3CCN(C)CC3)nc2n(C[C@H]2CCCO2)c1=O | inconclusive: 25.1 µM [inhibitor, single point] | 
CCc1nn2c(=O)cc(COC(=O)c3ccccc3)nc2s1 |  | inactive: -3.42%
COc1ccc(OC)c(NC(=O)C2Cc3ccccc3CN2S(=O)(=O)c2ccc(F)cc2)c1 (stereo not drawn) |  | inactive: -3.31%
